# Data reported in PubChem BioAssay AID1460 (National Center for Advancing Translational Sciences (NCATS), 2008).
# The campaign covered roughly 270,000 compounds. About 5,800 (2.1%) were called active. This list was built around the results that the source calls inconclusive (neither active nor inactive); the mix of calls is not that of the screen. Calls come from the whole dose curve; as a rule, active = well fitted inhibition curve with a large enough effect; inconclusive = small, poorly fitted or top-dose-only effect; inactive = flat fitted curve, though single readings scatter. Potencies beside an inconclusive call are fits to weak or partial responses and may not hold up.
# Target: Microtubule-associated protein tau (Homo sapiens) (UniProt P10636)
# Sequence of UniProt P10636 (P10636 whole entry, looked up): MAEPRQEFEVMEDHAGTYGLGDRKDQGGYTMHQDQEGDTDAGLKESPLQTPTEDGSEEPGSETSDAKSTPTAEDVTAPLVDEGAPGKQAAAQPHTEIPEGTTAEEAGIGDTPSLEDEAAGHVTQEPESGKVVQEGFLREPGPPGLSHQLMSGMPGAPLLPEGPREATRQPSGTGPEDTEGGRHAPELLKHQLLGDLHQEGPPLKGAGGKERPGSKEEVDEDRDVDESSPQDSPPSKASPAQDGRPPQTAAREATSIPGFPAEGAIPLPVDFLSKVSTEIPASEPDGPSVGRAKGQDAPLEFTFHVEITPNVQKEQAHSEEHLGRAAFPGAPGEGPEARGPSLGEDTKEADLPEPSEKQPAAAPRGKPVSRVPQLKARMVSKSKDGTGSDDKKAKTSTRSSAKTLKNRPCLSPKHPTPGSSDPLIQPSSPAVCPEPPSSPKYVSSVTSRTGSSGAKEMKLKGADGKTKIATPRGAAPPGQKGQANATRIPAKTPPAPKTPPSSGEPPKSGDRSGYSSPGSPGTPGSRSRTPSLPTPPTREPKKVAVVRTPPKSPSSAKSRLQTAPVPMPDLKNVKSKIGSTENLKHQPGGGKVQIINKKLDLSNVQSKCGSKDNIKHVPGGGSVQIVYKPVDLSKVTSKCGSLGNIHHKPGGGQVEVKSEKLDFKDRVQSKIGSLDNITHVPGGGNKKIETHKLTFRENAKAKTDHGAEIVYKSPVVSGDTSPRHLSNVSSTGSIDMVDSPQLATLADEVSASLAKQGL
# Test: qHTS for Inhibitors of Tau Fibril Formation, Thioflavin T Binding; note: nearly all actives have a fitted effect of over 55% in size
# Settings: recombinant tau K18 P301L, heparin-induced fibrillization, ThT fluorescence; series mostly up to 57.4 µM
# Method in brief: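 Using a mix of unlabeled (15 uM) and Alexa 594-labeled (0.24 uM) tau K18 P301L, heparin-triggered fibrillization over 6 hr at 37 C was scored by ThT fluorescence.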
# Potency is the fitted concentration of half-maximal effect; tags give direction and shape of the fitted curve.
row,Compound,Potency
1,Cc1cc2c(cc1C)CSC(c1ccccc1OC(=O)C(C)(C)C)SC2,"inconclusive: 12.6 µM [inhibitor, partial curve, poor fit]"
2,Cc1ccc(C(=O)CSc2nnc(CNc3ccc(C)cc3C)n2Cc2ccco2)cc1,"inconclusive: 25.1 µM [inhibitor, partial curve]"
3,Oc1ccccc1N1CCN(c2nc(-c3cccs3)nc3ccccc23)CC1,"inconclusive: 28.2 µM [inhibitor, single point]"
4,O=c1/c(=C/c2ccccc2)sc2nnc(-c3cccs3)n12,"inconclusive: 12.6 µM [inhibitor, partial curve]"
5,COC(=O)c1ccc(NC(=O)CC2C(=O)N(c3ccccc3)C(=O)N2Cc2ccc(F)cc2)cc1 (configuration not stated),inactive
6,CCC(=O)Nc1ccc(C(=O)N/N=C/c2ccc([N+](=O)[O-])cc2)cc1,"inconclusive: 2.82 µM [inhibitor, full curve]"
7,CC(=O)Oc1ccc(C(=O)[C@H]2[C@H]3C(=O)N(c4ccc5ccccc5c4)C(=O)[C@H]3[C@@H]3C=CC=NN32)cc1,"inconclusive: 11.2 µM [inhibitor, partial curve]"
8,Cc1ccccc1C(=O)Nc1ccc2nc(N3CCCCC3)cc(C)c2c1,"inconclusive: 14.1 µM [inhibitor, partial curve]"
9,COC(=O)Oc1ccc(/C=C/C(=O)OC(C)C)cc1OC(=O)OC,"inconclusive: 17.8 µM [inhibitor, single point]"
10,Cc1ccc(C(C(=O)NC2CCCCC2)N(Cc2ccco2)C(=O)Cc2c[nH]c3ccccc23)o1 (configuration not stated),"inconclusive: 35.5 µM [inhibitor, partial curve]"
11,CCC(=O)Nc1ccccc1-c1nc2ccccc2n(CC(=O)Nc2ccccc2OC)c1=O,inactive
12,CCN1/C(=C\C=C(C(C)=O)C(C)=O)Sc2ccccc21,"inconclusive: 10 µM [inhibitor, partial curve]"
13,CCCS(=O)(=O)c1c(S(=O)(=O)CCC)c2cc(C(C)(C)C)ccn2c1C(=O)c1ccccc1,"inconclusive: 20 µM [inhibitor, single point]"
14,Cc1c(C(=O)Nc2ccccc2)sc2nc(-c3cc4cc(Cl)ccc4oc3=O)[nH]c(=O)c12,inactive
15,COc1ccc(N(Cc2cccs2)C(=O)c2ccc(OC)c(Cl)c2)cc1,inactive
16,CC(=O)N1CCN(c2ccc(NC(=O)c3ccc(OCc4ccccc4)cc3)cc2)CC1,"inconclusive: 0.562 µM [inhibitor, full curve]"
17,Cc1cccc(-c2n[nH]c(=S)n2/N=C/c2cccs2)c1,inactive
18,Cc1[nH]n(-c2cccc(Cl)c2)c(=O)c1-c1ccc(Cl)cc1,"inconclusive: 25.1 µM [inhibitor, partial curve]"
19,Cc1cccc(CNc2ccnc(-c3ccc(N(C)C)cc3)n2)c1,"inconclusive: 15.8 µM [inhibitor, partial curve]"
20,O=C(Cc1cccs1)N1CCN=C1SCc1ccc(Br)cc1,"inconclusive: 35.5 µM [inhibitor, single point]"
21,CCN1CCc2c(sc(-n3cccc3)c2C(C)NC(=O)Nc2ccc(Br)cc2)C1 (configuration not stated),inactive

row,Compound,Potency
1,COc1cccc(Nc2nnc(SCc3nc4ccccc4s3)s2)c1,"inconclusive: 7.08 µM [inhibitor, partial curve]"
2,CC(=O)Nc1cccc(-c2csc(Nc3ccc(Cl)cn3)n2)c1,"inconclusive: 39.8 µM [inhibitor, single point]"
3,COc1ccccc1/C=N/NC(=O)c1ccc(NC(=O)c2ccccc2Br)cc1,"inconclusive: 6.31 µM [inhibitor, partial curve]"
4,CC(C)OC(=O)CCC/C=C\C[C@@H]1[C@@H](CC[C@@H](O)CCc2ccccc2)[C@H](O)C[C@@H]1O,"inconclusive: 5.01 µM [inhibitor, partial curve, poor fit]"
5,O=C1S/C(=C\C=C\c2ccco2)C(=O)N1c1ccccc1,active: 14.1 µM
6,CC(C)(C)c1ccc(Cn2nnc3c(=O)[nH]c(C4CCN(C(=O)Cc5cccs5)CC4)nc32)cc1,"inconclusive: 44.7 µM [inhibitor, partial curve]"
7,O=C(Cn1ncc2c3ccccc3n(Cc3cccc(Cl)c3)c2c1=O)Nc1ccc(F)cc1F,inactive
8,c1ccc(CN=C2NN=C(c3cc4ccccc4o3)CS2)cc1,"inconclusive: 14.1 µM [inhibitor, partial curve]"
9,Cc1cc(C(=O)N/N=C/c2ccc(Cl)c([N+](=O)[O-])c2)c(C)n1-c1ccc(F)cc1,"inconclusive: 7.94 µM [inhibitor, partial curve]"
10,COc1ccc(-c2noc(-c3cc4ccccc4oc3=O)n2)cc1,"inconclusive: 7.94 µM [inhibitor, full curve]"
11,CCOc1cc(CNc2ccc3cn[nH]c3c2)ccc1OC,"inconclusive: 28.2 µM [inhibitor, partial curve]"
12,O=C(Cn1ccn(-c2ccc(F)cc2)c(=O)c1=O)Nc1ccc(F)cc1,inactive
13,COc1ccccc1NC(=O)CCCn1c(=S)[nH]c2ccccc2c1=O,inactive
14,Cc1ccccc1Cn1cc(NC(=O)COc2ccccc2)cn1,"inconclusive: 22.4 µM [inhibitor, partial curve]"
15,COc1cc2c3nnc(-c4ccc(F)cc4)c-3cn(Cc3ccc(F)cc3)c2cc1OC,"inconclusive: 25.1 µM [inhibitor, partial curve]"
16,COc1cccc(N2CCN(C(=O)c3cc4c(s3)-c3ccccc3OC4)CC2)c1,"inconclusive: 7.94 µM [inhibitor, partial curve]"
17,CN(CC(=O)Nc1ccncc1)S(=O)(=O)c1ccc(Br)cc1,inactive
18,Cn1c(-c2ccc3c(c2)OCO3)cnc1N,"inconclusive: 35.5 µM [inhibitor, partial curve]"
19,CC(C)(C)C(=O)NCC(c1ccc2c(c1)OCO2)N1CCOCC1 (configuration not stated),inactive
20,CCc1ccc(NC(=O)/C(C#N)=C\c2ccc(OC)c(C(=O)O)c2)cc1,inactive
21,COc1ccc(-c2[nH]c3ccccc3c2SCCNC(=O)c2cc3ccccc3oc2=O)cc1,"inconclusive: 8.91 µM [inhibitor, partial curve]"
